Source: PMC4336329 (PLoS ONE, 2015)
The campaign covered roughly 310,000 compounds. About 2,200 (0.71%) showed an effect of 50% or more. The effect is printed as a negative number. This is one part of the list.

biological target: human ether-à-go-go-related gene (hERG) potassium channel (human, UniProt Q12809); test: primary screen, population patch clamp on CHO cells stably expressing hERG
Sequence (Q12809 whole entry, looked up): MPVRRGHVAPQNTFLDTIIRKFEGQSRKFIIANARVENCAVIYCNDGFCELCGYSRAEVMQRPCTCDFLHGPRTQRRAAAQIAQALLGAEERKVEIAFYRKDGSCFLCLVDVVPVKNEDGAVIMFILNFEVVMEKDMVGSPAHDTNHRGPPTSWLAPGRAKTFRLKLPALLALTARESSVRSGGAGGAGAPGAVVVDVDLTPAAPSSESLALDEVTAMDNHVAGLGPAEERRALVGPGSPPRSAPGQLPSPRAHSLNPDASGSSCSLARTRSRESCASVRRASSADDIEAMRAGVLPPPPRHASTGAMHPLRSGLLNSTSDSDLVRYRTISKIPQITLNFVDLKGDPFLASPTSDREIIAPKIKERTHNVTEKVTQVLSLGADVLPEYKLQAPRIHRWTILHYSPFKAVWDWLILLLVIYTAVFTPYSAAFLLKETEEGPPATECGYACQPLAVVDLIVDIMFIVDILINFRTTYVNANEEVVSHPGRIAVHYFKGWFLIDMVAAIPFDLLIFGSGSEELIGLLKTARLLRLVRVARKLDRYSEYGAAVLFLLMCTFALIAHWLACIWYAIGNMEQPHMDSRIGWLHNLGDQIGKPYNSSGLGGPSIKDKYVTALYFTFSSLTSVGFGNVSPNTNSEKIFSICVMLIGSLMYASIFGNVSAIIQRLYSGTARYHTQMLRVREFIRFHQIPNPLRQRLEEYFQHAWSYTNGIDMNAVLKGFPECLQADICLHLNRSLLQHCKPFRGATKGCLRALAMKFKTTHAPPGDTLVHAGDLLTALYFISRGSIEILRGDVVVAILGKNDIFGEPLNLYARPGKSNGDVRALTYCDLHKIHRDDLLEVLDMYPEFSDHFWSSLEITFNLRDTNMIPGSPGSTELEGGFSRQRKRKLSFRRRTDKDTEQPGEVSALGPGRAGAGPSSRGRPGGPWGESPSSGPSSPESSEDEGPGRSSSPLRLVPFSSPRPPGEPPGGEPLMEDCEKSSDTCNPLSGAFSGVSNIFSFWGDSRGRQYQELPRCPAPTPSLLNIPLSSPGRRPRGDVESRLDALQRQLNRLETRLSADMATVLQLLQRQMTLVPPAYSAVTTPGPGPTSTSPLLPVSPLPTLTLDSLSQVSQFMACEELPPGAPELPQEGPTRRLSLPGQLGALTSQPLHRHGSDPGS

First: CCN1C(=O)C(c2ccc(O)cc2)(c2ccc(O)cc2)c2ccccc21
Second: O=C(Cc1cccc2ccccc12)Nc1ccc2c(c1)C(=O)NC2=O
The “hERG current change (%, negative = inhibition) at 1uM” value of the first is lower: 7.13% for the first, 8.61% for the second.

Going from CCC(=O)Nc1ccccc1 to O=C(O)CN1CCc2ccccc2C1, the “hERG current change (%, negative = inhibition) at 1uM” value rises from 4.04% to 12.4%.

First: Cc1cccc(C(=O)N2CCCC(N3CCN(c4cccc(Cl)c4)CC3)C2)n1 (stereo not shown)
Second: O=C(N1CCN(c2ccccc2)CC1)C(F)(F)C(F)(F)F
The “hERG current change (%, negative = inhibition) at 1uM” value of the first is lower: -2.31% for the first, 5.64% for the second.

First: Cc1ccc(NC(=O)c2ccc(Cl)c(S(=O)(=O)N3CCCC3)c2)nc1
Second: Cc1ccc(CN2CCC(CNS(=O)(=O)c3ccc(-c4ccc(=O)[nH]n4)s3)CC2)cc1
The “hERG current change (%, negative = inhibition) at 1uM” value of the first is higher: 9.97% for the first, -28.8% for the second.

Compared with COCCNC(=O)COC(=O)c1[nH]c(C)c(C(C)=O)c1C, CC(CCc1ccccc1)NC(=O)COC(=O)c1ccccc1O (stereo not shown) is lower in “hERG current change (%, negative = inhibition) at 1uM” value: 16.6% for the first, 10.6% for the second.

Compared with CC(=O)Nc1nc(C)c(-c2csc([NH2+]c3ccccn3)n2)s1.[Br-], COCCNc1nnc(SCC(=O)Nc2nnc(-c3ccccc3)o2)s1 is higher in “hERG current change (%, negative = inhibition) at 1uM” value: -2.43% for the first, 20.7% for the second.

Going from COc1cccc(-c2nc(OC(C)C)c3ccccc3n2)c1 to CCCOc1cccc(C(=O)Nc2cccc3ncccc23)c1, the “hERG current change (%, negative = inhibition) at 1uM” value rises from 7.09% to 10.9%.

Going from Cc1c(Br)c([N+](=O)[O-])nn1C(C)C(=O)N1CCCc2ccccc21 (stereo not shown) to COc1ccc(NC(=O)N2c3ccccc3C(C)=CC2(C)C)cc1, the “hERG current change (%, negative = inhibition) at 1uM” value falls from 11.6% to 11%.

First: COc1ccc(/C=C/C(=O)c2cc3cccc(OC)c3oc2=O)cc1
Second: COc1ccc(C(=O)/C=C/c2ccc(OC)c(COc3ccccc3F)c2)cc1
The “hERG current change (%, negative = inhibition) at 1uM” value of the first is higher: 7.45% for the first, 6.63% for the second.

Going from O=c1c2c(nc3cc(-c4ccccc4)[nH]n13)CCC2 to Cc1cccc(N2C(=O)c3ccccc3C2=O)n1, the “hERG current change (%, negative = inhibition) at 1uM” value rises from 12.9% to 15%.

First: COc1ccc(N(CC(=O)Nc2cc([N+](=O)[O-])ccc2C)S(C)(=O)=O)cc1OC
Second: COc1cccc(OCCCOc2ccc([N+](=O)[O-])cc2Cl)c1
The “hERG current change (%, negative = inhibition) at 1uM” value of the first is higher: 8.94% for the first, 6.9% for the second.

Going from CCOc1ccc(NC(=O)N(CC(C)C)CC(C)C)cc1 to Cc1ccc(OCC(=O)Nc2ccc3oc(=O)ccc3c2)cc1, the “hERG current change (%, negative = inhibition) at 1uM” value falls from 10.1% to 8.99%.

Compared with CCOCCc1nn2c(=O)cc(CSCC(=O)Nc3ccc(OC)cc3)nc2s1, COc1ccc(NCc2nnc(SCCN3CCCCC3)n2-c2ccc(C)cc2)cc1 is lower in “hERG current change (%, negative = inhibition) at 1uM” value: 17.5% for the first, -25% for the second.

Compared with O=C(C1=C(O)C(=O)N(Cc2ccco2)C1c1cccc(Cl)c1)c1ccco1 (stereo not shown), CC1=NN(c2ccccc2)C(=O)C1C(=O)c1ccc(Cl)cc1 (stereo not shown) is higher in “hERG current change (%, negative = inhibition) at 1uM” value: -0.392% for the first, 9.97% for the second.

Going from O=C1CCc2cc(NS(=O)(=O)c3ccc(F)cc3)cc3c2N1CCC3 to CCN(CC)C(=O)c1c[nH]c2ccc(S(=O)(=O)Nc3cc(C)cc(C)c3)cc2c1=O, the “hERG current change (%, negative = inhibition) at 1uM” value falls from 10.3% to 8.26%.

Going from CCCCSc1nnc2c(n1)OC=Nc1ccccc1-2 to Cn1c(SCc2ccon2)nc2ccccc2c1=O, the “hERG current change (%, negative = inhibition) at 1uM” value rises from 6.56% to 12.3%.

Compared with COc1ccc(CC(=O)NC2CCSc3ccccc32)c(OC)c1 (stereo not shown), COc1ccccc1CCCNC(=O)C1CCC(=O)N(CCc2ccc(Cl)cc2)C1 (stereo not shown) is lower in “hERG current change (%, negative = inhibition) at 1uM” value: 9.66% for the first, -3.88% for the second.

First: Cc1cccc([C@@H]2[C@@H]3C(=O)N(Cc4ccccc4)C(=O)[C@@H]3[C@]3(Cc4ccc(Cl)cc4)C(=O)N(c4cccc(Br)c4)C(=O)N23)c1
Second: COc1ccc(CCN(C)Cc2ccc(OCc3ccccc3)c(OC)c2)cc1OC
The “hERG current change (%, negative = inhibition) at 1uM” value of the first is higher: 9.65% for the first, -42.9% for the second.

Compared with CCCCc1c(O)nc(SCC(=O)N2CCOCC2)[nH]c1=O, C=CCOc1c(Br)cc(CNCCCN2CCOCC2)cc1OC.Cl is higher in “hERG current change (%, negative = inhibition) at 1uM” value: 4.6% for the first, 9.27% for the second.

Compared with Cc1cc(CN(C)C(=O)c2cc(COc3ccc(C)c(C)c3)on2)on1, COc1cc(C(=O)NCCc2c[nH]c3ccccc23)ccc1OCc1c(C)noc1C is lower in “hERG current change (%, negative = inhibition) at 1uM” value: 17.3% for the first, 5.8% for the second.

Compared with CCCCOC(=O)C1=C(C)Nc2ncnn2C1c1cccc(OC)c1OC (stereo not shown), COC(=O)c1c(NC(=O)C2c3ccccc3Oc3ccccc32)sc(C)c1C is higher in “hERG current change (%, negative = inhibition) at 1uM” value: 8.7% for the first, 11.8% for the second.

First: Cc1cc(NC(=O)CN2CCN(C)CC2)no1
Second: CC1CCCC(NC(=O)CSc2nnc(C(F)(F)F)n2C)C1C (stereo not shown)
The “hERG current change (%, negative = inhibition) at 1uM” value of the first is higher: 13.5% for the first, 9.23% for the second.

Compared with Cc1ccc(N=Nc2c(N)[nH]n3c(=O)cc(C)nc23)cc1, Cc1cc(Nc2cccc(C(F)(F)F)c2)n2nc(C)nc2n1 is lower in “hERG current change (%, negative = inhibition) at 1uM” value: -9.23% for the first, -13.6% for the second.

First: c1ccc(Cc2nnc3sc(-c4cccnc4)nn23)cc1
Second: Cn1nc(C(=O)Nc2cccc(S(N)(=O)=O)c2)c2ccccc2c1=O
The “hERG current change (%, negative = inhibition) at 1uM” value of the first is lower: -12.8% for the first, 8.69% for the second.

First: Cc1nccn1CCc1nc(N)nc(N)n1
Second: C=CCOc1ccc(Oc2cc(C)nc(SC)n2)nn1
The “hERG current change (%, negative = inhibition) at 1uM” value of the first is higher: 11.4% for the first, 10% for the second.

Going from O=C1c2ccccc2NC(c2ccc3c(c2)OCCO3)N1c1ccc2c(c1)OCCO2 (stereo not shown) to CC(=O)c1cccc(NC(=O)C2COc3ccccc3O2)c1 (stereo not shown), the “hERG current change (%, negative = inhibition) at 1uM” value falls from 14.2% to 9.41%.

First: Nc1nc(SCC(=O)N2N=C3/C(=C/c4ccco4)CCCC3C2c2ccco2)n[nH]1 (stereo not shown)
Second: CCc1cccc(C)c1NC(=O)CO/N=C(\N)CC(=O)NC1CCCCC1
The “hERG current change (%, negative = inhibition) at 1uM” value of the first is lower: -5.91% for the first, 10.9% for the second.

First: CCOC(=O)/C=C/C(=O)Nc1ccccc1-c1ccccc1NC(=O)/C=C/C(=O)OCC
Second: O=C(NC(Oc1ccccc1)C(Cl)(Cl)Cl)c1ccccc1 (stereo not shown)
The “hERG current change (%, negative = inhibition) at 1uM” value of the first is lower: 12.9% for the first, 17.3% for the second.

Going from CCC(C)[C@H]1CN=C(N)N1CCc1cccc2ccccc12 (stereo partly shown) to CC1=CC(=C2C(=O)c3ccccc3C2=O)C=C(C)O1, the “hERG current change (%, negative = inhibition) at 1uM” value rises from 11.7% to 13.3%.
